Measurements as given in patent publication US20230340152A1 (published 2023).

T1: Human CD73 ECD (human, UniProt P21589 27-549)
T1 construct: Biotinylated in some assays; also called human CD73 extracellular domain; huCD73
T1 sequence: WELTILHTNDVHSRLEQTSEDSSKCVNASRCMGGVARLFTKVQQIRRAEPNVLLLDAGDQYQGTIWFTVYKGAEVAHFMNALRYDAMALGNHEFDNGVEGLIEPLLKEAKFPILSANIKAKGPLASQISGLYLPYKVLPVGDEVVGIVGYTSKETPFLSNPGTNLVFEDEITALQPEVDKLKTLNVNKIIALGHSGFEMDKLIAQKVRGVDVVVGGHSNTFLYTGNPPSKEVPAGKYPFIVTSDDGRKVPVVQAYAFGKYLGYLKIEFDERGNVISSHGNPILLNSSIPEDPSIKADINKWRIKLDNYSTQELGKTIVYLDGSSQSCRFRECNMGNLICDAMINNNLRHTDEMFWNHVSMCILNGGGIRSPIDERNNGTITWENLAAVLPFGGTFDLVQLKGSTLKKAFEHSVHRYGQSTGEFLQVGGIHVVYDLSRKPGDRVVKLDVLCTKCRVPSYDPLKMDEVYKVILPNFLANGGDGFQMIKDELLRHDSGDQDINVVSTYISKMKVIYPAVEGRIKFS

T2: Murine CD73 on cells (4T1, Jurkat mCD73 knock-in) (murine, UniProt Q61503 29-551)
T2 construct: whole, on cells; also called 4T1 (murine)
T2 sequence (looked up): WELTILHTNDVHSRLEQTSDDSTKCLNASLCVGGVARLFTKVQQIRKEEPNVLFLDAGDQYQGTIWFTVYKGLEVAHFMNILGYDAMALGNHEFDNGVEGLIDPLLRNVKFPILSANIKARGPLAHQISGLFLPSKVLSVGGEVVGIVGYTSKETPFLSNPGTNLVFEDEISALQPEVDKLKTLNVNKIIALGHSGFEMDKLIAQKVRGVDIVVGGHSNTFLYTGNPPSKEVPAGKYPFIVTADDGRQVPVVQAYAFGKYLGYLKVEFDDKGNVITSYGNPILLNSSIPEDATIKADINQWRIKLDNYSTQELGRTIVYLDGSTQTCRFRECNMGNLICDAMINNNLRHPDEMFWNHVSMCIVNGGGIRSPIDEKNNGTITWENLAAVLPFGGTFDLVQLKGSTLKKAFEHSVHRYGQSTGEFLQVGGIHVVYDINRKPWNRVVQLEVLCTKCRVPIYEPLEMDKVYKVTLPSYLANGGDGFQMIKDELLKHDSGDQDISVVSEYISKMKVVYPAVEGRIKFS

T3: Cynomolgus CD73 on MK-1 cells (cynomolgus, UniProt A0A2K5V5U7 27-549)
T3 construct: whole, on cells; also called MK-1 (cyno)
T3 sequence: T1 sequence with M199T, T350A, V466I

T4: Human CD73 on cells (MDA-MB-231, Jurkat CD73 knock-in, NCI-H322) (human, UniProt P21589 27-549)
T4 construct: GPI-anchored native protein; also called native human CD73
T4 sequence: T1 sequence

T5: Murine CD73 ECD (murine, UniProt Q61503 29-551, limits assumed)
T5 construct: extracellular domain; In-house recombinant ECD; also called murine CD73 extracellular domain; muCD73
T5 sequence (looked up): T2 sequence (looked up)

B1: 73combo6(GRVE+HPT) (antibody, V domains shown)
VH: [not shown - about 100 residues]LGYGRVDEWGRGTLVTVSS
VL: QSVLTQPPSASGTPGQRVTISCSGSLSNIGRNPVNWYQQLPGTAPKLLIYLNNQRPSGVPDRFSGSKSGTSASLAISGLQSEDEADYYCATWDDSHPGWTFGGGTKLTVL
notes: IgG1-TM format; also called clone combo6
B2: CD730010 GL9 VH Y102A Fab (Fab, name in Kabat numbering, V domains shown)
VH: [not shown - about 100 residues]LGYSTIDAWGRGTLVTVSS
VL: B1 VL with H96L, P97N, T100L
notes: Bacterial Fab, normalized supernatant
B3: CD730010 GL9 VH Y102K Fab (Fab, name in Kabat numbering, V domains shown)
VH: [not shown - about 100 residues]LGYSTIDKWGRGTLVTVSS
VL: B1 VL with H96L, P97N, T100L
notes: as for B2
B4: CD730010 GL9 VH Y102L Fab (Fab, name in Kabat numbering, V domains shown)
VH: [not shown - about 100 residues]LGYSTIDLWGRGTLVTVSS
VL: B1 VL with H96L, P97N, T100L
notes: as for B2
B5: CD730010 GL9 VH Y102M Fab (Fab, name in Kabat numbering, V domains shown)
VH: [not shown - about 100 residues]LGYSTIDMWGRGTLVTVSS
VL: B1 VL with H96L, P97N, T100L
notes: as for B2
B6: CD730010 GL9 VH Y102Q Fab (Fab, name in Kabat numbering, V domains shown)
VH: [not shown - about 100 residues]LGYSTIDQWGRGTLVTVSS
VL: B1 VL with H96L, P97N, T100L
notes: as for B2
B7: CD730010 GL9 VL L50F Fab (Fab, V domains shown)
VH: [not shown - about 100 residues]LGYSTIDYWGRGTLVTVSS
VL: B1 VL with L51F, H96L, P97N, T100L
notes: as for B2
B8: CD730010 GL9 VL N51A Fab (Fab, V domains shown)
VH: [not shown - about 100 residues]LGYSTIDYWGRGTLVTVSS
VL: B1 VL with N52A, H96L, P97N, T100L
notes: as for B2
B9: CD730010 GL9 VL N51D Fab (Fab, V domains shown)
VH: [not shown - about 100 residues]LGYSTIDYWGRGTLVTVSS
VL: B1 VL with N52D, H96L, P97N, T100L
notes: as for B2
B10: CD730010 GL9 VL N51Q Fab (Fab, V domains shown)
VH: [not shown - about 100 residues]LGYSTIDYWGRGTLVTVSS
VL: B1 VL with N52Q, H96L, P97N, T100L
notes: as for B2
B11: CD730010 GL9 VL P32A Fab (Fab, V domains shown)
VH: [not shown - about 100 residues]LGYSTIDYWGRGTLVTVSS
VL: B1 VL with P33A, H96L, P97N, T100L
notes: as for B2
B12: CD730010 GL9 VL P32D Fab (Fab, V domains shown)
VH: [not shown - about 100 residues]LGYSTIDYWGRGTLVTVSS
VL: B1 VL with P33D, H96L, P97N, T100L
notes: as for B2
B13: CD730010 GL9 VL P32E Fab (Fab, V domains shown)
VH: [not shown - about 100 residues]LGYSTIDYWGRGTLVTVSS
VL: B1 VL with P33E, H96L, P97N, T100L
notes: as for B2
B14: CD730010 GL9 VL P32G Fab (Fab, V domains shown)
VH: [not shown - about 100 residues]LGYSTIDYWGRGTLVTVSS
VL: B1 VL with P33G, H96L, P97N, T100L
notes: as for B2
B15: CD730010 GL9 VL P55I Fab (Fab, V domains shown)
VH: [not shown - about 100 residues]LGYSTIDYWGRGTLVTVSS
VL: B1 VL with P56I, H96L, P97N, T100L
notes: as for B2
B16: CD730010 GL9 VL P55L Fab (Fab, V domains shown)
VH: [not shown - about 100 residues]LGYSTIDYWGRGTLVTVSS
VL: B1 VL with P56L, H96L, P97N, T100L
notes: as for B2
B17: CD730010 GL9 VL Q53F Fab (Fab, V domains shown)
VH: [not shown - about 100 residues]LGYSTIDYWGRGTLVTVSS
VL: B1 VL with Q54F, H96L, P97N, T100L
notes: as for B2
B18: CD730010 GL9 VL Q53H Fab (Fab, V domains shown)
VH: [not shown - about 100 residues]LGYSTIDYWGRGTLVTVSS
VL: B1 VL with Q54H, H96L, P97N, T100L
notes: as for B2
B19: CD730010 GL9 VL Q53L Fab (Fab, V domains shown)
VH: [not shown - about 100 residues]LGYSTIDYWGRGTLVTVSS
VL: B1 VL with Q54L, H96L, P97N, T100L
notes: as for B2
B20: CD730010 GL9 VL Q53W Fab (Fab, V domains shown)
VH: [not shown - about 100 residues]LGYSTIDYWGRGTLVTVSS
VL: B1 VL with Q54W, H96L, P97N, T100L
notes: as for B2
B21: CD730010 GL9 VL Q53Y Fab (Fab, V domains shown)
VH: [not shown - about 100 residues]LGYSTIDYWGRGTLVTVSS
VL: B1 VL with Q54Y, H96L, P97N, T100L
notes: as for B2
B22: CD730010 GL9 VL S56G Fab (Fab, V domains shown)
VH: [not shown - about 100 residues]LGYSTIDYWGRGTLVTVSS
VL: B1 VL with S57G, H96L, P97N, T100L
notes: as for B2
B23: GRVE (antibody, IgG1, V domains shown)
VH: [not shown - about 100 residues]LGYGRVDEWGRGTLVTVSS
VL: B1 VL with H96L, P97N, T100L
notes: also called clone 10 GRVE
B24: HPT (antibody, IgG1, V domains shown)
VH: [not shown - about 100 residues]LGYSTIDYWGRGTLVTVSS
VL: B1 VL
notes: also called clone 10 HPT

How the values were obtained:
Human CD73 ECD [1] = target: T1, Human CD73 ECD; test: SPR (Proteon)
[2] = target: T2, Murine CD73 on cells (4T1, Jurkat mCD73 …); test: flow cytometry on cells
[3] = target: T3, Cynomolgus CD73 on MK-1 cells; test: flow cytometry on cells
[4] = target: T4, Human CD73 on cells (MDA-MB-231, Jurkat …); test: flow cytometry on cells
Murine CD73 ECD = target: T5, Murine CD73 ECD; test: direct ELISA, normalized Fab supernatant, vs CD730010 GL9
Human CD73 ECD [5] = target: T1, Human CD73 ECD; test: as above

| Binder | Kd (Human CD73 ECD [1]) [nM] | Kd [2] [nM] | Kd [3] [nM] | Kd [4] [nM] | ELISA signal, fold improvement over parental antibody (Murine CD73 ECD) [fold] | ELISA signal, fold improvement over parental antibody (Human CD73 ECD [5]) [fold] |
| --- | --- | --- | --- | --- | --- | --- |
| B1 | 0.015 | 0.082 | 0.107 | 0.166 |  |  |
| B2 |  |  |  |  | 5 | 6.6 |
| B3 |  |  |  |  | 7.4 | 9.9 |
| B4 |  |  |  |  | 5.8 | 7.3 |
| B5 |  |  |  |  | 6.3 | 7.9 |
| B6 |  |  |  |  | 3 | 3.6 |
| B7 |  |  |  |  | 1.4 | 2.2 |
| B8 |  |  |  |  | 2.5 | 6.7 |
| B9 |  |  |  |  | 4.5 | 8.9 |
| B10 |  |  |  |  | 2.3 | 4.2 |
| B11 |  |  |  |  | 5.5 | 6 |
| B12 |  |  |  |  | 6.5 | 11.7 |
| B13 |  |  |  |  | 6.7 | 27.7 |
| B14 |  |  |  |  | 5.8 | 6.1 |
| B15 |  |  |  |  | 3.2 | 3.7 |
| B16 |  |  |  |  | 4.3 | 5.7 |
| B17 |  |  |  |  | 2.7 | 4.1 |
| B18 |  |  |  |  | 1.9 | 2.4 |
| B19 |  |  |  |  | 3.8 | 6 |
| B20 |  |  |  |  | 2.7 | 3.1 |
| B21 |  |  |  |  | 2.3 | 5.8 |
| B22 |  |  |  |  | 5.6 | 7.1 |
| B23 | 0.029 | 0.088 | 0.101 | 0.125 |  |  |
| B24 | 0.548 | 5.81 | 1.14 | 0.739 |  |  |

Changes are numbered by the printed parent chain. In names and notes the source's numbering stands.
